# According to publication PMC13083723 (Patterns, 2026):
# Among all 5,400 compounds or so, about 190 (3.5%) showed an effect of 50% or more. The list shows a part of the results.
# Test system: Vero-E6
# Test: primary screen, phospholipidosis by LipidTOX staining; higher = more effect of the substance
# Settings: 10 µM
# Method: To measure drug-induced PLD in Vero-E6 cells, we used the HCS LipidTOX Red Phospholipidosis Detection Reagent (Invitrogen, #H34351), which is non-toxic to cell growth and remains well retained after aldehyde fixation. In this setup, compounds (at 10 μM concentration) and controls (amiodarone: 10 μM concentration; DMSO: 0.1 v/v %) were added to clear-bottom, 384-well plates (PhenoPlate 384-well, black, optically clear flat bottom, tissue-culture treated, Revvity #6057302) using the Echo Liquid Handler (Labcyte).
row,SMILES,result_ITMP [%]
1,Clc1cccc(-c2nnnn2Cc2cccnc2)c1Cl,-5.12
2,O=C(O)Cc1ccc2c(c1)C(=O)c1ccccc1CO2,-2.68
3,COc1cccc(-c2ccc(NC(=O)C3=C(C(=O)O)CCC3)c(F)c2)c1,-1.21
4,O=C(O)CCc1ccc(NCc2cccc3c2CCCN3CCOc2ccccc2)cc1F,-4.23
5,CCC1(CC)C(=O)C=CNC1=O,-8.67
6,OCCCNc1cc(-c2ccnc(Nc3cccc(Cl)c3)n2)ccn1,1.41
7,CC(=O)Nc1cccc2c1c(Sc1ccc(Cl)cc1)c(C)n2CC(=O)O,-3.99
8,FC(F)OC(F)(F)C(F)Cl (stereo not drawn),-10
9,Nc1ncn([C@@H]2O[C@H](CO)[C@@H](O)[C@H]2O)c(=O)n1,16.8
10,CC(COc1ccccc1)N(CCCl)Cc1ccccc1 (stereo not drawn),0.48
11,CCCNC(C)C(=O)Nc1ccccc1C (stereo not drawn),-3.79
12,COc1ccc(CN(CCN(C)C)c2ccccn2)cc1,5.57
13,COc1cc(/C=C/C(=O)N2CCN(CC(=O)N3CCCC3)CC2)cc(OC)c1OC,-8.1
14,CCCCCCCCCCCCCCCCCCOP(=O)([O-])OC1CC[N+](C)(C)CC1,0.66
15,O=C(Nc1ccc(OC(F)(F)F)cc1)c1sccc1NCc1ccnc2ccccc12,-11.3
16,CC(=O)c1ccc(S(=O)(=O)NC(=O)NC2CCCCC2)cc1,4.62
17,O=C(c1cccc(Br)c1)N1CCC(N2CCCC2)CC1,-11.1
18,Cc1c(-c2ccnn2C)cc(C(=O)NCc2ccc(S(C)(=O)=O)cn2)c(=O)n1-c1cccc(C(F)(F)F)c1,0.22
19,CCOc1ccc(/C=C2\NCCc3cc(OCC)c(OCC)cc32)cc1OCC,16.1
20,CCSC(=N)N,-3.01
21,Cc1nnc(-c2ccc3occ(-c4ccc(S(C)=O)cc4)c3c2)o1 (stereo not drawn),-0.99
22,O=Cc1ccc(CO)o1,-2.91
23,C=CCN1CCC23c4c5ccc(O)c4O[C@H]2C(=O)CC[C@@]3(O)[C@H]1C5,-3.91

row,SMILES,result_ITMP [%]
1,COC(=O)c1cnn(-c2ccc(F)cc2F)c1/C=N/NC(=S)NC(C)(C)C,-1.41
2,Cn1cc(-c2ccc(F)c(C(F)(F)F)c2)nc1C1CCN(c2ncnc3[nH]ncc23)CC1,0.1
3,CCOC(=O)[C@H](CCc1ccccc1)N[C@H]1CCc2ccccc2N(CC(=O)O)C1=O,30.3
4,COc1cccc(-n2nc(C(=O)O)cc2-c2ccc(C3CCCCC3)c(Cl)c2)c1,-0.33
5,Nn1cnc2cc3ccccc3cc2c1=O,-3.79
6,Cc1nc(NC(=O)N2CCC[C@H]2C(N)=O)sc1-c1csc(C(C)(C)C)n1,0.88
7,COC1=C(OC)C(=O)C(CCCCCCCCCCO)=C(C)C1=O,3.89
8,Cc1onc(O)c1CC(N)C(=O)O (racemic) [R4A_0004356_001 / SPE_A34716233],0.42
9,CCNC(=O)N1CCN(CCCC(c2ccc(F)cc2)c2ccc(F)cc2)CC1,8.88
10,C[C@]12CC[C@H]3[C@@H](CC[C@@]45O[C@@H]4C(O)=C(C#N)C[C@]35C)[C@@H]1CC[C@@H]2O,-0.39
11,O=C(N/N=C/c1ccc([N+](=O)[O-])o1)c1cc([N+](=O)[O-])cc([N+](=O)[O-])c1O,-5.79
12,C[C@@H](N[C@H]1CCCC[C@@H]1NC(=O)c1ccc(Cl)cc1)c1cccc2ccccc12,37.1
13,NCCCC[C@H](N[C@@H](CCc1ccccc1)C(=O)O)C(=O)N1CCC[C@H]1C(=O)O,-2.35
14,COc1cc(C[C@H](C)[C@H](C)Cc2ccc3c(c2)OCO3)ccc1O,-2.28
15,CCCCOCCOc1nc(-c2ccc(C(=O)O)c(F)c2)sc1C,7.08
16,COc1ccc(NC(=O)c2ccc(-c3ccc(-c4noc(C)n4)cc3C)cc2)cc1OCCN(C)C,81.5
17,CC(C)(C)NC[C@H](O)COc1nsnc1N1CCOCC1,-1.83
18,Cc1ccc(C(=O)Nc2ccc(CN3CCN(C)CC3)c(C(F)(F)F)c2)cc1C#Cc1cnc2cccnn12,11.4
19,C=C(c1ccccc1OCc1cccc(Cl)c1)n1ccnc1,2.27
20,c1ccc2c(c1)CCC[C@H]2Nc1nc2ccccc2[nH]1,-0.25
21,O=C(O)Cc1ccc(OCc2ccccc2)c(Cl)c1,2.22
22,C[C@@]12CCc3occc3[C@H]1CC[C@@]13C[C@@H](CC[C@H]12)[C@@](O)(CO)C3,-0.51
23,Cc1cc(OCCN2CCOCC2)nn1-c1ccc2ccccc2c1,-0.96

row,SMILES,result_ITMP [%]
1,COc1cc(OC)c2c(=O)[nH]c(-c3cc(C)c(OCCO)c(C)c3)nc2c1,-4.9
2,COc1cccc(NC(=O)/C=C/c2ccc(Cl)cc2)c1,-3.37
3,O=C1CSC(c2ccccc2Cl)c2cc(Cl)ccc2N1 (stereo not drawn),-3.44
4,CCCn1c(=O)c2nc(C3CCCC3)[nH]c2n(CCC)c1=O,9.14
5,FC(F)(F)c1ccccc1-n1ccnc1,-0.85
6,O=C(c1cccc(Cl)c1F)N1CCN(Cc2cccc(Nc3nccs3)n2)CC1,2.88
7,CC(C)[C@H]1C(=O)N[C@@H](CCCNC(=N)N)C(=O)NCC(=O)N[C@@H](CC(=O)O)C(=O)N[C@H](Cc2ccccc2)C(=O)N1C,-13.7
8,C[C@@H]1O[C@@H](Oc2c(-c3cc(O)c(O)c(O)c3)oc3cc(O)cc(O)c3c2=O)[C@H](O)[C@H](O)[C@H]1O,-3.84
9,O=C1CN2Cc3c(ccc(Cl)c3Cl)N=C2N1,-4.32
10,COCCN1CCN(Cc2ccc(-c3n[nH]c4c3C(=O)c3c(NC(=O)NN5CCOCC5)cccc3-4)cc2)CC1,-0.74
11,CC(CN)CC(=O)O (stereo not drawn),-2.76
12,NC(N)=Nc1nc(CSCC/C(N)=N\S(N)(=O)=O)cs1,-2.2
13,CC(C)C[C@H](NC(=O)[C@@H](Cc1c[nH]c2ccccc12)NC(=O)[C@H](Cc1ccc(O)cc1)NC(=O)[C@H](CO)NC(=O)[C@H](Cc1c[nH]c2ccccc12)NC(=O)[C@H](Cc1cnc[nH]1)NC(=O)[C@@H]1CCC(=O)N1)C(=O)N[C@@H](CCCN=C(N)N)C(=O)N1CCC[C@H]1C(=O)NCC(N)=O,-3.38
14,COC(=O)C1=CCCN(C)C1,-1.97
15,CN(C)Cc1c(C(=O)NCCOc2ccc(C(=O)NO)cc2)oc2ccccc12,-1.46
16,CC(C)NCC(O)COc1ccc(COCCOC(C)C)cc1 (stereo not drawn),-3.87
17,C=C(C)[C@@H]1[C@H]2OC(=O)[C@H]1[C@]1(O)C[C@H]3O[C@]34C(=O)O[C@H]2[C@]14C,-3.71
18,Fc1ccc(C(OCCN2CCN(CCCc3ccccc3)CC2)c2ccc(F)cc2)cc1,24.8
19,Cc1cc(C)c(N(Cc2ccccc2)S(=O)(=O)c2ccc(OCCNC(=O)c3cc4ccccc4o3)cc2)c(C(=O)NO)c1,-1.97
20,CN1CC[C@H](c2c(O)cc(O)c3c(=O)cc(-c4ccccc4Cl)oc23)[C@H](O)C1,1.91
21,CC(C)n1nc(C#Cc2ccccc2)c2c(N)ncnc21,1.2
22,CC1(CN)Cc2ccccc2C1,4.65
23,COc1ccc(-c2cc(=O)c3c(O)cc(O)cc3o2)cc1O,-2.3

row,SMILES,result_ITMP [%]
1,CC(C)(C)NCC(O)c1cc(Cl)c(N)c(Cl)c1 (stereo not drawn),-1.67
2,Nc1nc(Cl)nc2c1ncn2[C@@H]1O[C@H](CO)[C@@H](O)[C@@H]1F,-8.91
3,O=C([O-])C(O)Cc1ccc(O)c(O)c1 (stereo not drawn),1.45
4,CC(C)C(=O)OCC(=O)[C@@]12O[C@H](C3CCCCC3)O[C@@H]1C[C@H]1[C@@H]3CCC4=CC(=O)C=C[C@]4(C)[C@H]3[C@@H](O)C[C@@]12C,-8.83
5,CCCCCCCCCCCCCCOc1ccc(C(=O)O)o1,0.17
6,OC(c1ccccc1)C1CCN(CCc2ccccc2)CC1 (stereo not drawn),-0.41
7,Cc1c[nH]c2ncnc(N3CCC(CN)(C(=O)Nc4cccc(OC(=O)N(C)C)c4)CC3)c12,-0.8
8,CC(C)(C)Sc1c(CC(C)(C)C(=O)O)n(Cc2ccc(Cl)cc2)c2ccc(OCc3ccc4ccccc4n3)cc12,-0.86
9,CN1CCN(c2ccc3nc(-c4ccc5nc(-c6ccc(O)cc6)[nH]c5c4)[nH]c3c2)CC1,-0.53
10,CC(=O)N[C@@H](CC(C)C)C(=O)O,-3.92
11,Nc1nc(=O)c2nc(CNc3ccc(C(=O)N[C@@H](CCC(=O)O)C(=O)O)cc3)cnc2[nH]1,-2.25
12,CCn1c(=O)n([C@H]2CCCN(c3nccc(-c4cc5ccccc5o4)n3)C2)c2ccccc21,-1.15
13,NC[C@@H]1CC[C@@H](N)[C@@H](O[C@H]2[C@H](O)[C@@H](O[C@H]3O[C@H](CO)[C@@H](O)[C@H](N)[C@H]3O)[C@H](N)C[C@@H]2N)O1,-7.73
14,O=C1CCC2CCC(=O)N12,-3.3
15,CCC(c1ccccc1)c1c(O)c2ccccc2oc1=O (stereo not drawn),-4.73
16,CC(C)CC(=O)Nc1n[nH]c2c1CN(C(=O)C1CCN(C)CC1)C2(C)C,2.05
17,O=C(NCCS(=O)(=O)c1ccc(C(F)(F)F)cn1)c1ccc(Cl)cc1,-0.85
18,CCCc1ccc(C(=O)O)cc1,-9.29
19,Nc1nc(F)nc2c1ncn2[C@@H]1O[C@H](CO)[C@@H](O)[C@@H]1O,-3.23
20,Cc1c(OCC(F)(F)F)ccnc1CS(=O)c1nc2ccccc2[nH]1 (stereo not drawn),-1.32
21,CO/N=C(\C(=O)N[C@@H]1C(=O)N2C(C(=O)OCOC(=O)C(C)(C)C)=C(C)CS[C@H]12)c1csc(N)n1,-0.22
